# Reference: the supplement of paper PMC4604168 (melanoma cell lines)
# Some of the results follow. Many values rest on one well or one pass, so single values are uncertain.
# System: WM3619
# Experiment: cell count relative to DMSO control; melanoma cells; higher = more viable cells
# Conditions: library dose: low library concentration; 72 h
# 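Note: cell number obtained by counting DAPI-stained nuclei in high-throughput microscope images with image analysis software, screen run in 1,536-well plates.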
row,SMILES,cell count [%]
1,"NC1(c2ccc(-c3nc4ccn5c(=O)[nH]nc5c4cc3-c3ccccc3)cc2)CCC1 + NCC(=O)Nc1ccc(-n2nc(C(F)(F)F)cc2-c2ccc3c(ccc4ccccc43)c2)cc1 [OSU03012] (first compound 0.4 µM, partner dose 1 µM)",106
2,"NC1(c2ccc(-c3nc4ccn5c(=O)[nH]nc5c4cc3-c3ccccc3)cc2)CCC1 + c1cc(-c2cnn3cc(-c4ccc(OCCN5CCCCC5)cc4)cnc23)ccn1 [Dorsomorphin] (first compound 0.4 µM, partner dose 0.4 µM)",69
3,"NC1(c2ccc(-c3nc4ccn5c(=O)[nH]nc5c4cc3-c3ccccc3)cc2)CCC1 + C[C@]1(c2nc3c(C(N)=O)cccc3[nH]2)CCCN1 [Veliparib] (first compound 0.4 µM, partner dose 1.4 µM)",89
4,"C=C(c1ccc(C(=O)O)cc1)c1cc2c(cc1C)C(C)(C)CCC2(C)C [Bexarotene] + CCCCCCCCCCCC1=C(O)C(=O)C=C(O)C1=O [Embelin] (first compound 2 µM, partner dose 1.2 µM)",108
5,"CS(=O)(=O)c1ccc(C(=O)Nc2ccc(Cl)c(-c3ccccn3)c2)c(Cl)c1 [vismodegib] + COc1ccc(Cl)c(Nc2nc3ccccc3nc2NS(=O)(=O)c2cccc(NC(=O)C(C)(C)N)c2)c1 [XL147] (first compound 1 µM, partner dose 0.8 µM)",87.2
6,"NC1(c2ccc(-c3nc4ccn5c(=O)[nH]nc5c4cc3-c3ccccc3)cc2)CCC1 + CC1(C)NC(=O)N(c2ccc([N+](=O)[O-])c(C(F)(F)F)c2)C1=O [nilutamide] (first compound 0.4 µM, partner dose 1 µM)",105
7,"CS(=O)(=O)c1ccc(C(=O)Nc2ccc(Cl)c(-c3ccccn3)c2)c(Cl)c1 [vismodegib] + COc1cc2ncnc(Nc3ccc(Oc4ccccc4)cc3)c2cc1OC [SrcI1] (first compound 1 µM, partner dose 2 µM)",91.4
8,"CS(=O)(=O)c1ccc(C(=O)Nc2ccc(Cl)c(-c3ccccn3)c2)c(Cl)c1 [vismodegib] + CN(C)S(=O)(=O)c1ccc2c(c1)/C(=C/c1cc3c([nH]1)CCCC3)C(=O)N2 [SU6656] (first compound 1 µM, partner dose 0.4 µM)",113
9,"CN(c1ncccc1CNc1nc(Nc2ccc3c(c2)CC(=O)N3)ncc1C(F)(F)F)S(C)(=O)=O + O=C1NC(=O)/C(=C/c2ccc(-c3ccc(F)cc3O)o2)S1 [AS252424] (first compound 0.08 µM, partner dose 1 µM)",82
10,"CN(c1ncccc1CNc1nc(Nc2ccc3c(c2)CC(=O)N3)ncc1C(F)(F)F)S(C)(=O)=O + Oc1cc(-c2nc(-c3ccccc3)[nH]c2-c2ccncc2)ccc1Cl [L779450] (first compound 0.08 µM, partner dose 0.2 µM)",77.5
11,"C=C(c1ccc(C(=O)O)cc1)c1cc2c(cc1C)C(C)(C)CCC2(C)C [Bexarotene] + Cn1c(Nc2ccc(C(F)(F)F)cc2)nc2cc(Oc3ccnc(-c4ncc(C(F)(F)F)[nH]4)c3)ccc21 [CHIR265] (first compound 2 µM, partner dose 0.08 µM)",84.3
12,"CCCS(=O)(=O)Nc1ccc(F)c(C(=O)c2c[nH]c3ncc(Cl)cc23)c1F + COc1ccc(Cl)c(Nc2nc3ccccc3nc2NS(=O)(=O)c2cccc(NC(=O)C(C)(C)N)c2)c1 [XL147] (first compound 0.08 µM, partner dose 0.8 µM)",71.4
13,"CCCS(=O)(=O)Nc1ccc(F)c(C(=O)c2c[nH]c3ncc(Cl)cc23)c1F + CN(C)S(=O)(=O)c1ccc2c(c1)/C(=C/c1cc3c([nH]1)CCCC3)C(=O)N2 [SU6656] (first compound 0.08 µM, partner dose 0.4 µM)",112
14,"C=C(c1ccc(C(=O)O)cc1)c1cc2c(cc1C)C(C)(C)CCC2(C)C [Bexarotene] + COc1cc(Nc2ncc(F)c(Nc3ccc4c(n3)NC(=O)C(C)(C)O4)n2)cc(OC)c1OC [Tamatinib] (first compound 2 µM, partner dose 0.4 µM)",93.6
15,"CS(=O)(=O)c1ccc(C(=O)Nc2ccc(Cl)c(-c3ccccn3)c2)c(Cl)c1 [vismodegib] + CC(=O)O[C@@]12CO[C@@H]1C[C@H](O)[C@@]1(C)C(=O)[C@H](O)C3=C(C)[C@@H](OC(=O)[C@H](O)[C@@H](NC(=O)OC(C)(C)C)c4ccccc4)C[C@@](O)([C@@H](OC(=O)c4ccccc4)[C@H]21)C3(C)C [Docetaxel] (first compound 1 µM, partner dose 0.0001 µM)",80.1
